The list shows a part of the results. At the low end of the ranking the order means little.
The sequences below were run against T1, GST-Rok-C97-191 (UniProt O34857) (assay: protein binding microarray). Details: Rok is a gene silencer of Bacillus subtilis; high values mean tight binding; most listed sequences are background and not binding sites; double strand, one strand shown.
T1 sequence: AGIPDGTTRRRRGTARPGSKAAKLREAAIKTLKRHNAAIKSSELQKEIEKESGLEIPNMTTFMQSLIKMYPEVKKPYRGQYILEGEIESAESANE
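Note: rank score from −0.5 (least bound) to 0.5 (best bound).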

Sequence | binding signal [E-score]
CGCTGGGA | -0.283
GATAAAAA | 0.234
GAACCTCC | -0.235
GCTGGATA | -0.0998
TACCGGCA | 0.0154
AGACGTAT | 0.0232
CTTTGGCC | -0.0904
ATGTGCAA | -0.0855
CGATCTGC | -0.113
CGGGAAAC | -0.185
CTTTCATA | 0.0805
ACAAATCA | 0.0855
ACACGGGT | 0.0856
AGGATGAC | 0.0466
CCGCTACC | -0.0113
ATCCAGCG | -0.106
TGCGCGAA | -0.119
CGACGCTA | 0.0632
AGGAGAAG | 0.0182
CAGTTACG | 0.132
CAGAGATC | -0.211
CTATGCTA | 0.0252
GGTTCATA | 0.0639
GCAAAAGC | -0.141
ATCTCAGC | -0.0701

Sequence | binding signal [E-score]
AACTTCGA | 0.075
AAGGACAA | -0.0114
ATCCCTGC | -0.0639
ATTACTAC | 0.407
CGTGCTTA | 0.139
CTGCCCCA | -0.352
GCTTGGAC | -0.322
CTCTAGCC | -0.0809
CATAACCG | -0.11
TGGCAACA | -0.227
ACATCCGA | -0.00901
ACGATGTC | 0.0153
AGTGTAAG | 0.162
CAGACCGC | -0.326
CATGACGC | 0.015
TACAGATA | 0.293
CGAGAAGC | -0.113
ATTGTGTC | -0.103
CCTGCCGA | -0.192
ACTATGCT | -0.0596
ACTATTTA | 0.303
CCCCAGTC | -0.305
CCCGTGTC | -0.31
AAGGCGAA | -0.0632
ACCACACC | 0.00887

Sequence | binding signal [E-score]
CAGCTGCA | -0.0452
TATCTTGA | -0.0623
AGTCGCTG | 0.0266
GAAAATCC | 0.14
AGCCCGTC | -0.111
AGATACGA | 0.222
CGGAGTCC | -0.199
CTCCACGC | -0.0911
CCGGAAAC | -0.277
ACGTTGCC | -0.0575
ACACCGCG | 0.13
ATGCATGA | -0.101
CATATTGA | 0.129
CACCCGCG | -0.321
TCTAAAAA | 0.0481
AGGAAACG | -0.173
CCGTGACC | -0.166
ACAAGGCT | -0.249
AATCGGGC | -0.175
GTTTTTGA | -0.0121
ATTATGAG | -0.00845
GATCTGCC | -0.222
CGGAGGCA | -0.228
TGCAAACA | -0.179
AAATCTAG | 0.352

Sequence | binding signal [E-score]
ACATGCCT | 0.0246
CCCATCGC | -0.131
AGTGGGTG | 0.0718
TTGTGAAA | 0.0603
AAGTCCGA | -0.251
AAACGTGG | -0.137
ACTTCGAT | 0.162
ATCCCATG | -0.107
AGACAGTG | -0.301
ACCGCCCC | -0.219
GCCGGACC | -0.289
GCCATGCC | -0.144
ACATCAAC | 0.0583
AGGCAGAG | -0.0377
GAACGTGA | -0.119
ATCAAATC | 0.0661
AACAGGAT | -0.104
ATACAGGA | 0.0797
GTCTTTTA | 0.0872
TATCACCA | 0.0699
ACTGTGGG | -0.27
CGGCCTTC | -0.297
AATGAACC | -0.0713
CAAAGTCA | -0.142
CCTCTTGC | -0.00641

Sequence | binding signal [E-score]
TTCTCAAA | 0.142
AGCTGGAA | -0.0644
ACCACTTC | -0.137
CACTAAAC | -0.0842
GCAGAACA | -0.168
CCGATCTA | 0.27
ATAACAGG | -0.0508
AGGCCAAA | -0.232
CAGGCTTC | -0.29
ATATTCTC | 0.327
TAGGCAGA | 0.0287
TACAAAAA | -0.00375
ACTCCATA | 0.12
CCGATCTC | -0.0877
TTCGACAA | 0.172
AGGAAGGC | -0.202
ACACGACC | -0.0303
AGGATACT | 0.0521
ATGACGCC | -0.151
ACCCCACC | -0.267
ATTACTTC | 0.28
AATCCCGC | 0.00826
AATAAGCG | -0.0283
CCTCGGCG | -0.236
CCGAACTA | 0.283

Sequence | binding signal [E-score]
GACCAGTA | -0.136
TCACCGGA | -0.0782
ACAGAAGT | 0.157
AGGGATAT | 0.117
ACCAAATG | 0.12
CTAGGACA | 0.0572
AGAATCGG | 0.0769
ATGCAGAA | 0.195
CCACGACA | -0.254
GTTCTAAA | -0.072
ACCCTGAT | -0.17
CTGTATTC | -0.119
GCACTAGA | 0.0446
ATTAGCTG | 0.285
AAAACGAT | 0.0564
CGTCTCGA | -0.212
ACCTACCG | 0.148
CATTAAAC | -0.118
CTGGCCAA | -0.0242
GGCGTAAA | -0.0507
GAAGTAAC | 0.08
ATACAGCC | -0.129
TAAATGGA | 0.0913
AGGCCGGA | -0.102
ACGGATAC | -0.124

Sequence | binding signal [E-score]
GCATGCAA | -0.0249
AGCGAGTG | -0.209
TAATTCGA | 0.207
AAGTTCTC | 0.106
CAGTGATA | 0.123
ATCCACGA | 0.0799
CCAAGTGA | -0.0437
CGCTAGGC | 0.00451
GTTAGTAA | 0.163
GACTCTGC | -0.28
GCCAGTAA | -0.198
GAGTAAAA | 0.269
CAGAATAC | -0.0359
CAAAGTGG | -0.00341
GAAAACCC | -0.0637
ATTTTGAG | 0.058
ACCTAACC | -0.123
CTTTTGTA | 0.241
ACAATAGG | 0.238
TCACCCGA | -0.093
CTCGAAAA | -0.124
CTGGGTTC | -0.0789
GACAGCAC | -0.165
GAGCGCAA | -0.0463
GTTATAGA | 0.128

Sequence | binding signal [E-score]
CTAAATCA | 0.0393
CCCGACCC | -0.31
CTGCTGGC | -0.199
AGGGTCAG | -0.216
CCGACAAA | -0.148
CTACGACA | 0.104
GAAGCCAC | -0.199
AAACGGTT | -0.0305
GTATGCGA | 0.013
CAGTAGCC | -0.0922
CGTCAGGC | -0.192
ACTTCTGG | 0.0906
GGGGAAAC | 0.0197
GCGCCCAA | -0.261
ACCACGTC | -0.195
CCTGGTTC | -0.4
CAACGCTC | -0.215
CAACGAAG | -0.0928
GAAACGAC | -0.198
ACCACTGA | 0.0869
CGGCCTAA | -0.152
CCTAGAGA | -0.0834
GGTATTCA | 0.0513
ATGCCCCG | -0.0948
CTAGACGA | 0.024

Sequence | binding signal [E-score]
CTGAGACC | -0.227
CATGTCCC | -0.16
GACATTAC | 0.0945
CCGCACGG | -0.178
AGACCTAC | -0.0941
CCTCTAGC | -0.145
AGGTACAG | 0.077
CATCAGCC | -0.19
AAGATGCG | -0.081
AATTTTTG | 0.175
CACTTACA | 0.0869
AATGGGTG | 0.133
GCCATGCA | -0.208
ACTCCAGT | 0.0136
CGCCACCA | -0.256
CCAATTGG | -0.196
GATTACCA | 0.14
CTGACAAC | 0.16
CAGGTCGA | -0.0908
GTTCTAGA | 0.132
CTCTACCA | 0.159
ACATTAGT | 0.247
GATCCAGA | -0.053
CTTGTCTA | -0.0276
CTCCAAAC | 0.0111

Sequence | binding signal [E-score]
CTTACCTA | 0.203
GGTCAACA | -0.115
GCGTAATA | 0.183
CTGCCGAA | -0.111
GAAACCGA | -0.127
TATATTGA | 0.288
AGCCATGA | -0.0665
GTGGACAC | -0.258
GAGGCTAC | -0.296
CCCATTTC | 0.0795
CGGCCTGA | -0.244
CAAGAGGG | -0.213
TAACATTA | 0.234
GACAGTAA | 0.144
AGTCTGAG | 0.0475
AGTAACAA | 0.207
AGCCGTTA | 0.0336
TACTTATA | 0.331
ACTCTAAC | 0.113
CGGGGAGC | -0.375
ACTGCACG | -0.143
AGGCCCAC | -0.329
ATAGTTAA | 0.327
TCTGGCAA | -0.0496
ACATCGAG | 0.0748

Sequence | binding signal [E-score]
CATGATGA | 0.0928
GCGAGCTA | 0.0373
ACTAGATC | 0.335
AAGGAAAC | -0.325
ACTGAATA | 0.121
ACAAGCAA | 0.0415
CAGCCCTC | -0.135
CTAGGAAA | 0.0148
CACGGAGC | -0.133
AAGTTAGG | 0.0911
TAGATGGA | -0.0485
TAGTGCAA | 0.19
GAGTGGAA | -0.185
ACCTGCGG | -0.0697
AGTATCGG | 0.0653
GACCGATA | 0.0176
CCGCCTCG | -0.172
TACAGTAA | 0.319
ACGCAACC | -0.00125
AATTTCAA | 0.139
ATGAAGTA | 0.232
CTGTCAGA | -0.0787
AGTGAACC | -0.0543
CTATCGAG | 0.122
CAGTCCAG | -0.242

Sequence | binding signal [E-score]
CCTAGGAA | 0.0104
AGTAATCA | 0.152
ACCGAGTC | -0.0145
AAGCGCGA | -0.00804
CACAATTA | 0.196
GCAGATAA | 0.127
CGTGGAAC | -0.156
TAGGGAGA | -0.316
AGTTAATC | 0.0838
CACATGGC | 0.0688
ATTGGAGC | -0.0295
ATGACATC | -0.0261
CTAGTTGC | 0.23
CCGTACCC | 0.0185
AAGACTGG | -0.0489
CTCACTTC | -0.103
TAGTCTCA | -0.188
AATGTCCG | -0.0567
ACCTTCGC | -0.0326
TTGACCAA | 0.0145
ACTAATTC | 0.373
AATGTCCT | -0.133
TCTTTGAA | 0.0288
GGTTGATA | 0.112
AGCAACTA | 0.244

Sequence | binding signal [E-score]
ACATAGCT | 0.133
AAATACAA | 0.265
GGCCTCCC | -0.404
ACGCTCAG | -0.0936
CACCTTAC | 0.091
CTGACTAA | -0.0227
TAACCATA | 0.161
CACGGTGG | -0.112
GTCGCCTA | -0.125
AAAGACGT | -0.206
AATATTTA | 0.311
AATGAAGC | -0.0713
GAGGTTGC | -0.00436
CATCACTC | 0.017
TACGAAGA | 0.233
CAAGTCCC | -0.198
AAATTCTA | 0.379
CGTATGGC | -0.112
AGAAAGAC | -0.0251
CTCCGTGC | -0.185
CAAGGGCG | -0.259
CCTCGCCG | -0.309
ATCGTGTG | 0.00119
AAGTCTTG | -0.152
AAGATAGA | 0.193

Sequence | binding signal [E-score]
AGCATCCC | -0.0271
AGATGAAT | 0.179
CGTCACAA | 0.00773
CCTTTACC | -0.154
CGTCTCAA | -0.147
CGCGCTCC | -0.152
TCGTCAAA | -0.177
AGTCATAC | 0.0487
AGGTTTAA | -0.0984
GAACGGTA | 0.25
GAACCCAA | -0.0111
CCATTCCG | -0.00607
AACGAAAT | 0.151
GGTAGAGA | 0.173
GAAGATAA | 0.224
GCAGGAGA | -0.1
CTGCAGCA | 0.0837
AACTACAG | 0.327
GACCGACA | 0.045
